Results reported in the antibiotic and cytotoxicity screens of Wong et al. (2023).
Some of the results follow.

tested on: HSkMC (human skeletal muscle cells); assay: cytotoxicity call (relative viability < 0.9); conditions: 10 µM

Structure (SMILES) | cytotoxicity call
COc1cccc(S(=O)(=O)N(C)C[C@@H]2Oc3ncc(-c4cccc(C(=O)N(C)C)c4)cc3C(=O)N([C@@H](C)CO)C[C@H]2C)c1 | inactive
CC(C)NC(=O)Nc1ccc2c(c1)C(=O)N([C@@H](C)CO)C[C@H](C)[C@@H](CN(C)C(=O)Nc1ccc3c(c1)OCO3)O2 | inactive
C[C@H](CO)N1C[C@H](C)[C@@H](CN(C)S(=O)(=O)c2ccc(Cl)cc2)OCc2cnnn2CCCC1=O | inactive
C#CC1(O)CCC2C3CCC4=C(CCC(=O)C4)C3CCC21C (configuration not stated) | inactive
CC(=O)NS(=O)(=O)c1ccc(N)cc1 | inactive
N#CCON1C(=O)c2ccccc2C1=O | inactive
C[C@H]1CN([C@@H](C)CO)C(=O)c2cc(C#CCN(C)C)cnc2O[C@@H]1CN(C)C(=O)CN1CCOCC1 | inactive
C[C@@H]1CCCCO[C@@H](CN(C)C(=O)c2ccncc2)[C@H](C)CN([C@@H](C)CO)C(=O)c2cc(NS(C)(=O)=O)ccc2O1 | inactive
O=C(C[C@H]1C[C@H]2c3cc(NC(=O)NC4CCCC4)ccc3O[C@H]2[C@@H](CO)O1)NCc1ccc(-c2ccccc2)cc1 | inactive
CC[C@@H](C)NC(=O)C1CCNCC1 | inactive
COc1ccc2cc1Oc1ccc(cc1)CC1c3cc(c(OC)cc3CCN1C)Oc1c(OC)c(OC)cc3c1C(C2)N(C)CC3 (configuration not stated) | inactive
C[C@@H]1CN([C@H](C)CO)C(=O)Cc2cc(NC(=O)Cn3cnnn3)ccc2O[C@@H]1CN(C)C(=O)Nc1ccccc1 | inactive
O=C(O)CCn1ccnc1 | inactive
CC(C)NC(=O)Nc1ccc2c(c1)CC(=O)N([C@@H](C)CO)C[C@@H](C)[C@@H](CN(C)C(=O)Nc1ccc3c(c1)OCO3)O2 | inactive
O=C(C[C@@H]1C=C[C@H](NC(=O)c2ccc(F)cc2)[C@H](CO)O1)NCc1ccncn1 | inactive
C[C@H]1CN([C@@H](C)CO)C(=O)c2cccc(NC(=O)Nc3ccc(C(F)(F)F)cc3)c2O[C@@H]1CN(C)Cc1ccc2c(c1)OCO2 | active

Structure (SMILES) | cytotoxicity call
C[C@H](CO)N1C[C@H](C)[C@@H](CN(C)C(=O)Nc2ccc(C(F)(F)F)cc2)OCCCC[C@H](C)Oc2ccc(NS(=O)(=O)c3cn(C)cn3)cc2C1=O | inactive
C[C@@H]1CN([C@@H](C)CO)C(=O)c2cccc(NC(=O)c3nc4ccccc4s3)c2O[C@H]1CN(C)Cc1ccc(-c2ccccc2)cc1 | inactive
Cn1cnc(S(=O)(=O)N2C[C@@H](O)COC[C@@H]3O[C@H](CC(=O)NC4Cc5ccccc5C4)CC[C@H]32)c1 | inactive
Cc1cccc(-c2ccc3c(c2)O[C@H](CN(C)Cc2ccc(C(=O)O)cc2)CCN(C(C)C)S3(=O)=O)c1 | inactive
C[C@@H]1CN([C@H](C)CO)C(=O)c2cc(NS(=O)(=O)c3ccccc3)ccc2O[C@@H](C)CCCCO[C@@H]1CN(C)Cc1ccc(Cl)c(Cl)c1 | active
CCS(=O)(=O)Nc1ccc2c(c1)C(=O)N(C)[C@@H]1CC[C@H](CC(=O)NCc3ccccc3F)O[C@H]1CO2 | inactive
C[C@@H]1CCCCO[C@H](CN(C)Cc2ccc(C(=O)O)cc2)[C@H](C)CN([C@@H](C)CO)C(=O)c2cc(NS(=O)(=O)c3cccs3)ccc2O1 | inactive
CS(=O)(=O)NC[C@@]12COC[C@H]1CN(C(=O)c1cnccn1)C2 | inactive
C[C@H](CO)N1C[C@H](C)[C@H](CN(C)S(=O)(=O)c2ccc(F)cc2)Oc2c(NC(=O)Nc3cccc4ccccc34)cccc2C1=O | active
O=C(CCCCCNC(=O)OCCCCO[C@@H]1C[C@H](c2ccc(C(F)(F)F)cc2)C=C(C(=O)N2CCN(Cc3ccc4c(c3)OCO4)CC2)O1)NO | inactive
C[C@H]1CN([C@@H](C)CO)C(=O)c2cc(NC(=O)Nc3ccc(C(F)(F)F)cc3)ccc2O[C@H]1CN(C)C(=O)Nc1ccc(F)cc1 | inactive
CCCNc1ncnc(N)c1[N+](=O)[O-] | inactive
Cc1noc(C)c1NC(=O)Nc1cccc2c1O[C@@H](CN(C)S(=O)(=O)c1cn(C)cn1)[C@H](C)CN([C@@H](C)CO)C2=O | inactive
C[C@H]1CN([C@@H](C)CO)C(=O)c2cc(NC(=O)C3CCCCC3)ccc2O[C@H]1CN(C)Cc1ccc(C(=O)Nc2ccccc2N)cc1 | inactive
CC(=O)N(C)C[C@@H]1Oc2ncc(C#CC(C)(C)O)cc2C(=O)N([C@H](C)CO)C[C@H]1C | inactive
COCCOC(=O)N1C(=O)[C@@]2(c3ccccc31)[C@H](C(=O)N1CCc3cc(OC)c(OC)cc3C1)[C@H]1C(=O)O[C@H](c3ccccc3)[C@H](c3ccccc3)N1[C@@H]2c1ccc(O)cc1 | inactive
